Test results reported in PMC12136788.
The list shows a part of the results.

B1: 121518184_121526273_779_CDS_ENSG00000173226_ENST00000310864|human|control|control (ssRNA)
RNA: GGGAGUUCUACAGUCCGACGAUCAUACAGGGCUUUUCUUCCUAUUCUGAGUAAAUCACCACUGUUGAUCUGUAGUAUAUUCUGUAGCAUCAUCAUGACUGCAGAUCCUAUUUGGACAUUGUCAGCUUGCAGUAAAUGUAAGAACAACAGAGGAUUGAGCAUCA
B2: 75014891_75015011_2779_3pUTR_ENSMUSG00000034593_ENSMUST00000123128|mouse|control|control (ssRNA)
RNA: GGGAGUUCUACAGUCCGACGAUCUCGCUGCACUGUGAUGGCUGCCCUCUGCAUACACAGGUAUCUCUUCCUUAGAAGCCACCCACGAAUGGUCUUCUGGAUCCGGAUGCAGGCAGCCCGAAGUUUGUCAGCCCUCAAUUUUUCCAACAGAGGAUUGAGCAUCA
B3: chr1:225611761:225611762:-_ENSG00000143815_ENST00000272163|hu_mus|hu_hu_hu_mus_True|8_28 (ssRNA)
RNA: GGGAGUUCUACAGUCCGACGAUCCCAGGCCAUCGGCCUCUGACCACUUCACCCUCAACAAACUUCCUACUUGGCAUUUUCUAAAAUUAGUCUGGCCGCGCUCCGGCCGGUGACACGGCCACUCCAGGGAGAAUAGUAGCAGCCCAACAGAGGAUUGAGCAUCA
B4: chr17:34945718:34945719:+_ENSG00000005955_ENST00000304718|hu_mus|motif|central (ssRNA)
RNA: GGGAGUUCUACAGUCCGACGAUCAUUUAAGCGGCAGUAUUUAUUAAAUUUCUCCUUCAGAUGCUGUCGGUAUUGUUCUCGGUUGCUGUAGAAAGACUGGUUAUUAGCCAUAAAUGACUGUAUUUCAUCUUGUGAGAUAAAGAUCAACAGAGGAUUGAGCAUCA
B5: chr2:114674474:114674475:+_ENSG00000115091_ENST00000535589|hu_hu|FALSE|FALSE (ssRNA)
RNA: GGGAGUUCUACAGUCCGACGAUCGUCAUCAACACCUUUCAUCACCCUCCUUUGAGCUUGAUCACCCACUUUUGCUGACUCCUUAAUAGCAAUACAGGAAGGGAUGAUAAACUGUGGUUCUGUAUUUCCAGCAUAUCCUAGUUUCAACAGAGGAUUGAGCAUCA
B6: 144360401_144368566_810_CDS_ENSMUSG00000037062_ENSMUST00000163279|mouse|control|control (ssRNA)
RNA: GGGAGUUCUACAGUCCGACGAUCACUUUGAGUUAUUCUCAAUUCCUGUUCAGAUGAACUUUUAGUUUCUGCAGCUUUUGCCUUUUUUAGUCUUGUUUUUGCAGCAUCCAAAUCCAGUCUCUUAUUCUGUAAUAGUUUCCUUUCCAACAGAGGAUUGAGCAUCA
B7: 179956415_179959755_592_3pUTR_ENSG00000135837_ENST00000367607|human|control|control (ssRNA)
RNA: GGGAGUUCUACAGUCCGACGAUCUUUUCUACUUAUUUUUCGAGUAGCACUUGUAGAAGACUUCUUGGUAUCCAUGACAGAAUCACACACAGCUGUACUUGUAGGGGCUACUUCUAAUUUAUUUUCAAUGUGUCUCAGAGCAGCCAACAGAGGAUUGAGCAUCA
B8: chr19:59067291:59067292:-_ENSG00000130725_ENST00000253023|hu_mus|motif|central (ssRNA)
RNA: GGGAGUUCUACAGUCCGACGAUCCAGGUCGGGGGGGAGGCAGCACCGACCAUAAUCACGUGGUGGUCAAAAAAAAAAUAACGGGGGGCAGGUGACAGGGAAGAGAGGCAAGGCCAAGGCAGGGGCCAAGGCUACCCCACACACCAACAGAGGAUUGAGCAUCA
B9: chr6:122779733:122779734:-_ENSG00000111897_ENST00000339697|hu_mus|motif|central (ssRNA)
RNA: GGGAGUUCUACAGUCCGACGAUCUAACAUUACACAAGCUACACAUACUCCGACGAGCAAGAAAAGUGCGUAGAUCAAUCGGGUCACAGUGGAGUUGUUCCCACUGGGGCAGCAUCGGCACAGCAAACACGGGGCACUGCCACACAACAGAGGAUUGAGCAUCA
B10: chr2:114691908:114691909:+_ENSG00000115091_ENST00000536059|hu_hu|FALSE|FALSE (ssRNA)
RNA: GGGAGUUCUACAGUCCGACGAUCGCCAAUCACAUACCCUUCAGCCACAGGAAUGACAUGAGUGACACCAUCUCCACUGUCUAUUACCGUACCGGUCAACGUCCGUUCUCCUACUUGUCUUGAGGUCCAAGAUGCAGCUAAGGCCAACAGAGGAUUGAGCAUCA
B11: chr10:90611280:90611281:-_ENSMUSG00000019961_ENSMUST00000072239|mus_mus|FALSE|FALSE (ssRNA)
RNA: GGGAGUUCUACAGUCCGACGAUCGAUUUAAAAGCAAGUCAGUUAUACUUUUAAAUCAAAUUACAUCGGGAAUUAUAUGCCUAAAACAAACAAAAAUAACACCCAGACUCAACCCAAAACAAAAAACCCAAAAAUCCCUGGCUGCAACAGAGGAUUGAGCAUCA
B12: chr7:135612270:135612271:-_ENSG00000105887_ENST00000393085|hu_hu|FALSE|FALSE (ssRNA)
RNA: GGGAGUUCUACAGUCCGACGAUCUUUUCUGAGAUGUUAAGUAUUACUUCAGUGGAGAACAAAACUUACUUAACCUUUCGCUAAUGCAUGUAGUACCAGAAAGCAAACAUGGUUUUAGCUUCCUUUACUCAAAAUAUGAACAUUCAACAGAGGAUUGAGCAUCA
B13: 6624856_6638637_1340_3pUTR_ENSMUSG00000041272_ENSMUST00000039987|mouse|control|control (ssRNA)
RNA: GGGAGUUCUACAGUCCGACGAUCCUGGCUGGGCCCAUGGAAUACUGACGGCUUUGAGUUGACCAGCUGGGGUGGCUGAGAUGUCUUAACAUCAACAGGAUCAGUGUAGCUCUUGGAUACAAGGCUGGCUCUGUAUGCUGCUAGCAACAGAGGAUUGAGCAUCA
B14: chr12:15822463:15822464:-_ENSMUSG00000020601_ENSMUST00000020922|mus_hu|FALSE|FALSE (ssRNA)
RNA: GGGAGUUCUACAGUCCGACGAUCUUUAAAAGGGAGCGAGAGGGGAGGGGACAGAAGAGGGGCUGCGUGGAGAAAGAGUUAGAAGCCCCCAAAUGGGCGCCGCCGGAUACCUCGUCUGCUCCGAGCCCGGCUCCCGGGGGUCCUCAACAGAGGAUUGAGCAUCA

biological target: T1, UNK ZnF1-3 (human, UniProt Q9C0B0 31-174); assay: nsRBNS (natural sequence RNA bind-n-seq); RBNS binding buffer (assumed for nsRBNS): 25 mM Tris pH 7.5, 150 mM KCl, 3 mM MgCl2, 0.01% Triton X-100, 500 ug/ml BSA, 20 U/ml SUPERase-In, 4 C; UNK is unkempt and MSI1 is Musashi-1; names of the RNAs are library labels; protein concentration not given here; high values mean tight binding
T1 sequence: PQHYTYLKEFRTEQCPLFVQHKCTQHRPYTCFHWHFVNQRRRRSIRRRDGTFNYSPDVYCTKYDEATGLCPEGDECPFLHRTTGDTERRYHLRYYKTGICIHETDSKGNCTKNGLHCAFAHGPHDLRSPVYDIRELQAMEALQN

| Binder | binding signal [enrichment R] |
| --- | --- |
| B1 | 0.976 |
| B2 | 0.448 |
| B3 | 1.05 |
| B4 | 0.68 |
| B5 | 0.752 |
| B6 | 0.321 |
| B7 | 1.18 |
| B8 | 2.56 |
| B9 | 1.42 |
| B10 | 1.24 |
| B11 | 1.59 |
| B12 | 0.587 |
| B13 | 1.18 |
| B14 | 1.17 |
